Test results taken from PubChem BioAssay AID624418 (National Center for Advancing Translational Sciences (NCATS), 2012).
Among all 410,000 compounds or so, about 530 (0.13%) were called active. Inconclusive results, whose numbers are uncertain, are shown with a selection of clear calls. The call rests on the fitted dose curve; in most records, active means well fitted inhibition curve with a large enough effect; inconclusive means small, poorly fitted or top-dose-only effect, or another doubt; inactive means no such curve, though single readings can be large or run the other way. Potencies beside an inconclusive call are fits to weak or partial responses and may not hold up.

assay: qHTS of GLP-1 Receptor Inverse Agonists: Cytotox Screen; conditions: HEK293 cAMP-luciferase reporter cells, luminescence, 24 h; activity change, negative = inhibition: at 38.3 µM (top of the series) unless noted
Procedure, shortened: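 Step one: seed cells (200 cells/uL, DMEM with 10% Nu serum, 1% pen-strep). Step two: 12-hour incubation at 37 deg C. Step three: pin 23 nL compound, incubate 24 hr. Step four: add luciferase reagent, read luminescence 12 min later.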
On the % scale 0 is the no-effect control and ±100 the full control effect; potency means the concentration at half of the fitted maximal effect.

Compound	Potency	activity change, negative = inhibition
Cc1ccc(NS(=O)(=O)c2ccc(NC(=O)CN(c3cc([N+](=O)[O-])ccc3C)S(C)(=O)=O)cc2)c(C)c1	inconclusive: 28.2 µM [inhibitor, single point]	–
Fc1ccccc1CN1CCCN(C(=S)Nc2cccc(Cl)c2)C1	inconclusive: 22.4 µM [inhibitor, single point]	–
CC(=O)NC(c1cccs1)c1cc([N+](=O)[O-])c2cccnc2c1O (stereo not drawn)	inconclusive: 31.6 µM [inhibitor, partial curve, poor fit]	–
CCCCCCCN1C2=NCCN2c2ccccc21	inconclusive: 7.94 µM [inhibitor, partial curve]	–
CCOc1ccc(CC(=O)Nc2c(C(=O)c3ccccc3)oc3ccc(Cl)cc23)cc1OCC	–	inactive: 5.51%
CSC(=S)N/N=C(\C)c1ccc(Br)cc1	inconclusive: 1 µM [inhibitor, full curve, poor fit]	–
C/C(=N\Nc1ccccn1)c1cccs1	inconclusive: 28.2 µM [inhibitor, single point]	–
Cc1cc(Nc2ccc(F)cc2F)nc(-n2nc(C)cc2C)n1	–	inactive: -2.19%
O=C(c1cccc(F)c1)N1CCN(c2ccc([N+](=O)[O-])c(N3CCCCC3)c2)CC1	inconclusive: 11.2 µM [inhibitor, single point]	–
CC1=C(C(=O)Nc2cccnc2)C(c2ccc(C)cc2)n2nc(SCc3ccccc3F)nc2N1 (stereo not drawn)	–	inactive: -1.3%
O=C(Nc1sc2c(c1C(=O)O)CCC2)c1ccco1	inconclusive: 17.8 µM [inhibitor, partial curve, poor fit]	–
CCOC(=O)c1c(-c2ccc(C)o2)csc1NC(=S)NC(=O)N(C)C	inconclusive: 11.2 µM [inhibitor, single point]	–
Cc1ccccc1C(=O)N1CCC(C(=O)Nc2ccc3c(c2)OCO3)CC1	–	inactive: 0.371%
CC[n+]1c(/C=C2\Sc3ccccc3N2C)ccc2cccc(C)c21	inconclusive: 7.08 µM [inhibitor, partial curve, poor fit]	–
COc1cccc(CCN2CCC(CNS(=O)(=O)c3cc(-c4cc(C)no4)ccc3OC)CC2)c1	inconclusive: 28.2 µM [inhibitor, single point]	–
Cc1onc(-c2ccccc2)c1-c1ccnn1S(=O)(=O)c1ccc(Cl)cc1	inconclusive: 22.4 µM [inhibitor, single point]	–
Cc1ccccc1C(=O)N1CCN(c2ccc(NC(=S)NC(=O)c3cccs3)cc2)CC1	inconclusive: 2.51 µM [inhibitor, full curve, poor fit]	–
O=C(COC(=O)/C=C/c1ccccc1)Nc1ccc(Cl)cn1	–	inactive: 12.6%
CC1CC(C)CN(CC(C)(C)NS(=O)(=O)c2ccc(Cl)cc2)C1 (stereo not drawn)	inconclusive: 31.6 µM [inhibitor, single point]	–
Cc1cc(NS(=O)(=O)c2ccc(Nc3nc(-c4ccc(C)c(C)c4)cs3)cc2)no1	inconclusive: 25.1 µM [inhibitor, single point]	–
Cc1cc2ncn(C(=O)N3CCC(C)CC3)c2cc1C	inconclusive: 10 µM [inhibitor, partial curve, poor fit]	–
CCOc1ccc(-c2[nH]ncc2-c2ccc(Cl)cc2)c(O)c1	inconclusive: 28.2 µM [inhibitor, single point]	–

Compound	Potency	activity change, negative = inhibition
O=C(NCCc1ccccc1)c1ccc(Cl)c([N+](=O)[O-])c1	–	inactive: 4.17%
CCN(CC)CCCNc1nc(-c2ccccc2)nc2ccccc12	inconclusive: 31.6 µM [inhibitor, single point]	–
CCn1c(=O)c(CCC(=O)N2CCN(c3ccccn3)CC2)c(C)c2c(C)nn(-c3cccc(C)c3)c21	–	inactive: 5.84%
NCCc1c(-c2ccccc2)n(-c2ccccc2)c2ccccc12	inconclusive: 11.2 µM [inhibitor, single point]	–
Cc1ccc2c(CC(=O)N(Cc3ccc(N(C)C)cc3)Cc3ccco3)coc2c1C	–	inactive: 15.4%
CC(=O)Nc1ccc(NC(=O)CSc2nnnn2-c2ccccc2F)cc1	inconclusive: 31.6 µM [inhibitor, single point]	–
Cc1ccc2c(=O)n3c(nc2c1)C(Cc1ccccc1)NC(=O)c1cc2ccccc2cc1-3 (stereo not drawn)	inconclusive: 0.501 µM [inhibitor, full curve, poor fit]	–
CCOc1ccc(N2CC(C(=O)Nc3cccc(S(=O)(=O)N4CCOCC4)c3)CC2=O)cc1 (stereo not drawn)	inconclusive: 3.16 µM [inhibitor, partial curve, poor fit]	–
CCc1nnc(NC(=O)c2cccc(NC(=O)C(C)C)c2)s1	–	inactive: -3.02%
COc1cccc(CN(C)C(=O)C2CC(=O)N(c3ccc4c(c3)OCCO4)C2)c1 (stereo not drawn)	–	inactive: -20.8%
CCOC(=O)N/N=C/c1c(C)nn(-c2ccccc2Cl)c1Cl	inconclusive: 4.47 µM [inhibitor, partial curve]	–
Cc1ccc(NCCN(C)C)c2c(=O)c3cc(O)ccc3sc12	inconclusive: 11.2 µM [inhibitor, partial curve, poor fit]	–
O=C(NCc1ccco1)C1CCN(S(=O)(=O)c2cccc3cccnc23)CC1	inconclusive: 31.6 µM [inhibitor, single point]	–
CCN(CC)C(=O)C1=C(C)N(CCCOC)C(=O)C(CC(=O)NC(c2ccccc2)c2ccccc2)C1 (stereo not drawn)	–	inactive: 17.7%
CCCCN(CCCC)/C(N)=N/c1nc(C)cc(C)n1	inconclusive: 28.2 µM [inhibitor, single point]	–
COc1ccc(-c2cnc3c(c2)CCC3(C#N)C#N)cc1	inconclusive: 5.62 µM [inhibitor, partial curve]	–
NC(=O)N1c2ccccc2C=Cc2ccccc21	inactive	–
Cc1ccc2nc(-c3ccc(NS(C)(=O)=O)cc3)cc(-c3ccccc3)c2c1	–	inactive: 11.6%
NC(Cc1ccc(C(F)(F)F)cc1)c1csc(NC(=O)Nc2ccccc2Cc2ccccc2)n1 (stereo not drawn)	inconclusive: 28.2 µM [inhibitor, single point]	–
COc1ccc([N+](=O)[O-])cc1NC(=O)Cn1ccsc1=N	inconclusive: 1 µM [inhibitor, full curve, poor fit]	–
O=C(Nc1ccccc1NC(=O)c1c(F)c(F)c(F)c(F)c1F)c1c(F)c(F)c(F)c(F)c1F	inconclusive: 31.6 µM [inhibitor, single point]	–
